# Source: the supplement of paper PMC8728848
# This is one part of the list.
# B1: LYVE-1 (Homo sapiens), Q9Y5Y7 (protein)
# chain: MARCFSLVLLLTSIWTTRLLVQGSLRAEELSIQVSCRIMGITLVSKKANQQLNFTEAKEACRLLGLSLAGKDQVETALKASFETCSYGWVGDGFVVISRISPNPKCGKNGVGVLIWKVPVSRQFAAYCYNSSDTWTNSCIPEIITTKDPIFNTQTATQTTEFIVSDSTYSVASPYSTIPAPTTTPPAPASTSIPRRKKLICVTEVFMETSTMSTETEPFVENKAAFKNEAAGDPEVKFNWYVDGVEVHNAKPREEQYNSTYRVVSLVTVLHQDWLNGKEYKCKVSNKALPAPIEKTISKAKGQPREPQVYTLPPSRDELTKNQVSLTCLVKGFYPSDIAVEWESNGQPENNYKTTPPVLDSDGSFFLYSKLTVDKSRWQQGNVFSCSVMHEALHNHYTQRSLSLSPGK
# Experiments:
# Assay in all cases: glycan array binding signal (z-score within array); higher = stronger binding
# Settings in all cases: glycan notation: IUPAC condensed, linker removed
# [1] = molecular target: Neu5Ac(a2-3)Gal(b1-3)GalNAc(b1-3)Gal(a1-4)Gal(b1-4)Glc
# Method in brief: (§1)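 The Consortium for Functional Glycomics database supplied 3228 glycan arrays, of which those lacking an available protein sequence were dropped. The binding signal, a within-array Z-score, was averaged across arrays of the same protein sequence and across linkers. Negative scores can be read as non-binding.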
# [2] = molecular target: Neu5Ac(a2-3)Gal(b1-3)GalNAc(b1-3)Gal(b1-4)GlcNAc
# Method in brief: as §1
# [3] = molecular target: Neu5Ac(a2-3)Gal(b1-3)GalNAc(b1-4)[Neu5Ac(a2-3)]Gal(b1-4)Glc
# Method in brief: as §1
# [4] = molecular target: Neu5Ac(a2-3)Gal(b1-3)GalNAc6S
# Method in brief: as §1
# [5] = molecular target: Neu5Ac(a2-3)Gal(b1-3)GlcNAc
# Method in brief: as §1
# [6] = molecular target: Neu5Ac(a2-3)Gal(b1-3)GlcNAc(b1-3)Gal(b1-3)GlcNAc
# Method in brief: as §1
# [7] = molecular target: Neu5Ac(a2-3)Gal(b1-3)GlcNAc6S
# Method in brief: as §1
# [8] = molecular target: Neu5Ac(a2-3)Gal(b1-3)[Fuc(a1-4)]GlcNAc
# Method in brief: as §1
# [9] = molecular target: Neu5Ac(a2-3)Gal(b1-3)[Fuc(a1-4)]GlcNAc(b1-3)Gal(b1-4)[Fuc(a1-3)]GlcNAc
# Method in brief: as §1
# [10] = molecular target: Neu5Ac(a2-3)Gal(b1-3)[Neu5Ac(a2-3)Gal(b1-4)]GlcNAc
# Method in brief: as §1
# [11] = molecular target: Neu5Ac(a2-3)Gal(b1-3)[Neu5Ac(a2-6)]GalNAc
# Method in brief: as §1
# Neu5Ac(a2-3)Gal(b1-4)Glc = molecular target: Neu5Ac(a2-3)Gal(b1-4)Glc
# Method in brief: as §1
# [12] = molecular target: Neu5Ac(a2-3)Gal(b1-4)GlcNAc
# Method in brief: as §1
# [13] = molecular target: Neu5Ac(a2-3)Gal(b1-4)GlcNAc(b1-2)Man(a1-3)[GlcNAc(b1-2)Man(b1-4)GlcNAc(b1-2)Man(a1-6)]Man(b1-4)GlcNAc(b1-4)GlcNAc
# Method in brief: as §1
# [14] = molecular target: Neu5Ac(a2-3)Gal(b1-4)GlcNAc(b1-2)Man(a1-3)[Neu5Ac(a2-6)Gal(b1-4)GlcNAc(b1-2)Man(a1-6)]Man(b1-4)GlcNAc(b1-4)GlcNAc
# Method in brief: as §1
# [15] = molecular target: Neu5Ac(a2-3)Gal(b1-4)GlcNAc(b1-3)Gal(b1-3)GlcNAc
# Method in brief: as §1
# [16] = molecular target: Neu5Ac(a2-3)Gal(b1-4)GlcNAc(b1-3)Gal(b1-4)GlcNAc
# Method in brief: as §1
# [17] = molecular target: Neu5Ac(a2-3)Gal(b1-4)GlcNAc(b1-3)Gal(b1-4)GlcNAc(b1-3)Gal(b1-4)GlcNAc
# Method in brief: as §1
# [18] = molecular target: Neu5Ac(a2-3)Gal(b1-4)GlcNAc(b1-3)Gal(b1-4)[Fuc(a1-3)]GlcNAc
# Method in brief: as §1
# [19] = molecular target: Neu5Ac(a2-3)Gal(b1-4)GlcNAc(b1-6)[Gal(b1-3)]GalNAc
# Method in brief: as §1
# [20] = molecular target: Neu5Ac(a2-3)Gal(b1-4)GlcNAc(b1-6)[Neu5Ac(a2-3)Gal(b1-3)]GalNAc
# Method in brief: as §1
# [21] = molecular target: Neu5Ac(a2-3)Gal(b1-4)GlcNAc6S
# Method in brief: as §1
# [22] = molecular target: Neu5Ac(a2-3)Gal(b1-4)[Fuc(a1-3)]GlcNAc
# Method in brief: as §1
# [23] = molecular target: Neu5Ac(a2-3)Gal(b1-4)[Fuc(a1-3)]GlcNAc(b1-3)Gal
# Method in brief: as §1
# [24] = molecular target: Neu5Ac(a2-3)Gal(b1-4)[Fuc(a1-3)]GlcNAc(b1-3)Gal(b1-4)GlcNAc
# Method in brief: as §1
# [25] = molecular target: Neu5Ac(a2-3)Gal(b1-4)[Fuc(a1-3)]GlcNAc(b1-3)Gal(b1-4)[Fuc(a1-3)]GlcNAc(b1-3)Gal(b1-4)[Fuc(a1-3)]GlcNAc
# Method in brief: as §1
# [26] = molecular target: Neu5Ac(a2-3)Gal(b1-4)[Fuc(a1-3)]GlcNAc(b1-6)[Gal(b1-3)]GalNAc
# Method in brief: as §1
# [27] = molecular target: Neu5Ac(a2-3)Gal(b1-4)[Fuc(a1-3)]GlcNAc6S
# Method in brief: as §1
# [28] = molecular target: Neu5Ac(a2-3)Gal6S(b1-4)GlcNAc
# Method in brief: as §1
# [29] = molecular target: Neu5Ac(a2-3)Gal6S(b1-4)[Fuc(a1-3)]GlcNAc
# Method in brief: as §1
# Neu5Ac(a2-3)GalNAc = molecular target: Neu5Ac(a2-3)GalNAc
# Method in brief: as §1
# [30] = molecular target: Neu5Ac(a2-3)GalNAc(b1-4)GlcNAc
# Method in brief: as §1
# [31] = molecular target: Neu5Ac(a2-3)[GalNAc(b1-4)]Gal(b1-4)Glc
# Method in brief: as §1
# [32] = molecular target: Neu5Ac(a2-3)[GalNAc(b1-4)]Gal(b1-4)GlcNAc
# Method in brief: as §1
# [33] = molecular target: Neu5Ac(a2-3)[Neu5Ac(a2-6)]GalNAc
# Method in brief: as §1
# Neu5Ac(a2-6)Gal = molecular target: Neu5Ac(a2-6)Gal
# Method in brief: as §1
# Neu5Ac(a2-6)Gal(b1-4)Glc = molecular target: Neu5Ac(a2-6)Gal(b1-4)Glc
# Method in brief: as §1
# [34] = molecular target: Neu5Ac(a2-6)Gal(b1-4)GlcNAc
# Method in brief: as §1
binder,measurement,setting,value
B1,glycan array binding signal (z-score),[1],1.74
same,glycan array binding signal (z-score),[2],0.157
same,glycan array binding signal (z-score),[3],4.82
same,glycan array binding signal (z-score),[4],-0.154
same,glycan array binding signal (z-score),[5],0.151
same,glycan array binding signal (z-score),[6],0.656
same,glycan array binding signal (z-score),[7],0.919
same,glycan array binding signal (z-score),[8],-0.007
same,glycan array binding signal (z-score),[9],-0.424
same,glycan array binding signal (z-score),[10],-0.228
same,glycan array binding signal (z-score),[11],0.133
same,glycan array binding signal (z-score),Neu5Ac(a2-3)Gal(b1-4)Glc,0.324
same,glycan array binding signal (z-score),[12],-0.595
same,glycan array binding signal (z-score),[13],-0.128
same,glycan array binding signal (z-score),[14],-0.141
same,glycan array binding signal (z-score),[15],1.41
same,glycan array binding signal (z-score),[16],1.29
same,glycan array binding signal (z-score),[17],-0.095
same,glycan array binding signal (z-score),[18],-0.602
same,glycan array binding signal (z-score),[19],3.43
same,glycan array binding signal (z-score),[20],6.79
same,glycan array binding signal (z-score),[21],-0.351
same,glycan array binding signal (z-score),[22],-0.098
same,glycan array binding signal (z-score),[23],0.531
same,glycan array binding signal (z-score),[24],-0.309
same,glycan array binding signal (z-score),[25],5.13
same,glycan array binding signal (z-score),[26],-0.173
same,glycan array binding signal (z-score),[27],-0.17
same,glycan array binding signal (z-score),[28],-0.03
same,glycan array binding signal (z-score),[29],-0.005
same,glycan array binding signal (z-score),Neu5Ac(a2-3)GalNAc,-0.126
same,glycan array binding signal (z-score),[30],3.73
same,glycan array binding signal (z-score),[31],-0.358
same,glycan array binding signal (z-score),[32],-0.558
same,glycan array binding signal (z-score),[33],-0.992
same,glycan array binding signal (z-score),Neu5Ac(a2-6)Gal,-0.135
same,glycan array binding signal (z-score),Neu5Ac(a2-6)Gal(b1-4)Glc,-0.332
same,glycan array binding signal (z-score),[34],-0.457
